Experimental data: ChEMBL document CHEMBL4196070, “Development of Piperazinediones as dual inhibitor for treatment of Alzheimer's disease” (Eur J Med Chem, 2018)

Key:
Conditions in all cases: Electrophorus electricus
[1] = system: O=C1C(c2ccccc2)N(S(=O)(=O)c2ccc(Cl)cc2)C(=O)C(c2ccccc2)N1S(=O)(=O)c1ccc(Cl)cc1; assay: Non-competitive inhibition of electric eel AChE assessed as Vmax for substrate at 10 nM preincubated for 30 mins followed acetylthiocholine iodide substrate addition by Lineweaver-Burk plot analysis
[2] = system: O=C1C(c2ccccc2)N(S(=O)(=O)c2ccc(Cl)cc2)C(=O)C(c2ccccc2)N1S(=O)(=O)c1ccc(Cl)cc1; assay: Non-competitive inhibition of electric eel AChE assessed as Vmax for substrate at 20 nM preincubated for 30 mins followed acetylthiocholine iodide substrate addition by Lineweaver-Burk plot analysis
[3] = system: O=C1C(c2ccccc2)N(S(=O)(=O)c2ccc(Cl)cc2)C(=O)C(c2ccccc2)N1S(=O)(=O)c1ccc(Cl)cc1; assay: Non-competitive inhibition of electric eel AChE assessed as Vmax for substrate at 40 nM preincubated for 30 mins followed acetylthiocholine iodide substrate addition by Lineweaver-Burk plot analysis

Acetylcholinesterase (Electrophorus electricus) (sequence not shown)
Vmax [1]: 6.79 U/min | Vmax [2]: 5.24 U/min | Vmax [3]: 4.67 U/min
